Reference: ChEMBL document CHEMBL4888484, “Replenishing the malaria drug discovery pipeline: Screening and hit evaluation of the MMV Hit Generation Library 1 (HGL1) against asexual blood stage Plasmodium falciparum ,using a nano luciferase reporter read-out” (2022)
In all, about 150,000 compounds went through this assay and about 540 (0.36%) showed an effect of 50% or more. The list shows a part of the results.

tested on: Plasmodium falciparum; assay: Primary screen in NF54 nanoGlo assay, in single point, at 2uM, 72h; a lower Z score goes with more inhibition; format: functional, Erythrocyte; settings: timepoint 72 hour

Compound | % Inhibition [%] | Z score
CC(=O)N1CCC(N2CCC[C@H](C(=O)c3ccc4c5c(cccc35)CC4)C2)CC1 | -11 | 1.6
Cc1nc(-c2cc3c(s2)CCN(C(=O)c2cccnc2)C3)cs1 | -15 | 1.26
COCCN(Cc1ccc(OC)c(OS(=O)(=O)c2ccc(F)cc2)c1)S(=O)(=O)c1ccc(C)cc1 | -14 | 2.72
O=C(NCc1cccnc1)c1nn(-c2ccccc2)c(=O)c2ccccc12 | 29 | -3.25
Cc1cc(O)ccc1NC(=O)Cc1ccn(-c2ccccc2)n1 | 1 | -0.09
C[C@@H](Cc1ccccn1)N(C)C(=O)c1cc2sccc2[nH]1 | -26 | 3.36
O=C(CCNc1ncccn1)Nc1nc(C2CC2)n[nH]1 | 1 | -0.1
O=C(CC1CCCCC1)N1CCC(n2c(-c3ccccc3)nc3ccc(F)cc32)CC1 | -4 | 0.45
CC1(C)CN(Cc2csc(-c3ncccn3)n2)CCO1 | -5 | 0.78
Cc1ccc(Cn2ncc3c2NC(=O)C[C@]32C(=O)Nc3ccc(Cl)cc32)cc1 | -9 | 1.1
O=C(Nc1ccc(NC[C@H]2CCCO2)c(F)c1)c1cc(C2CC2)[nH]n1 | -11 | 2
Oc1ccccc1-c1nc(Oc2ccccc2Cl)c2ccccc2n1 | 22 | -2.54
COC(=O)C12CCCC1CN(C(=O)c1cc(Cl)c[nH]1)C2 (configuration not stated) | -5 | 0.8
COc1cccc(CNCc2ccc3nsnc3c2)c1O[C@@H](C)C(=O)O | -15 | 1.42
Fc1cccc(CCCn2cncn2)c1 | 0 | -0.01
Cc1nc(N2CCC(OC3CCOCC3)CC2)nc(C)c1CC(C)C | -6 | 0.68
COc1ccc(C[C@H](C)N(C)S(=O)(=O)c2cnc(C)s2)cc1 | -18 | 1.63
CN(C(=O)c1coc(COc2ccc(F)cc2Cl)n1)C1CCOCC1 | -10 | 1.76
COc1ccc(C)cc1NC(=O)N1C[C@H](c2nc(-c3ccncc3)no2)[C@@H](C)C1 | 4 | -0.49
CC1CN(CN2C(=O)C(=O)c3c(Br)cccc32)CC(C)O1 (configuration not stated) | -6 | 1
COc1cc(NC(=O)N(C)Cc2ccco2)ncn1 | 30 | -3.41
CC(C)N(CC(F)(F)F)C(=O)c1ncoc1-c1cccs1 | -16 | 2.14

Compound | % Inhibition [%] | Z score
O=S1(=O)CCC[C@H](Cc2ncc(C(F)(F)F)cc2Cl)C1 | 4 | -0.76
Cc1cnn(CC2CCCN2C2CCOC2=O)c1 (configuration not stated) | -7 | 1.12
CCc1ccc(-c2c(-c3ccccc3)ncn2CCN2CCC[C@H](CO)C2)nc1 | -10 | 2
Cc1cc[n+]2c(-c3ccccc3)cc(-c3ccccc3)nc2c1 | 60 | -11.27
Fc1cc(Br)ccc1-c1noc(-c2cn(C[C@H]3CCOC3)nn2)n1 | -6 | 1.22
Cc1cccnc1CN(Cc1ccccc1)C(=O)[C@H]1CC[C@H](O)CC1 | -1 | 0.21
Cc1cc(C(=O)N2CCOCC2)nn1CC(=O)NCCc1ccccc1 | -3 | 0.54
Cn1ncc(C(N)=O)c1NCc1cccc(C2CC2)c1 | -2 | 0.41
CC[C@H]1CC[C@H](C(=O)NS(=O)(=O)CC(F)(F)F)CC1 | -12 | 1.63
CC(C)c1nc(NC2CCN(c3cc(=O)[nH]c(N)n3)CC2)c2cnn(C)c2n1 | -15 | 2.81
Cc1ccc(C(=O)N2CCO[C@H](c3nccs3)C2)cc1Oc1ccncc1 | -2 | 0.3
O=C(NC1CCCC1)c1c(O)nc2c(c1O)CCCC2 | -12 | 1.43
Cc1ncsc1CCN(C)Cc1ccc(O)cc1Cl | -5 | 0.66
Cc1nccn1CCCn1c(=O)n(CC2CC2)c2ccc(C(=O)O)cc21 | -3 | 0.44
CCn1nc(C)c(CNC(=O)[C@@H](CC2CCC2)NC(C)=O)n1 | 7 | -1.31
O=C(NO[C@@H]1CCCCO1)NC1CC(c2ccccc2)C1 (some centres not stated) | -1 | 0.08
CCOc1ncccc1CNC(=O)[C@H]1CCOC(C)(C)C1 | -11 | 1.46
C=CCn1ccc2ccn(Cc3c(C)noc3C)c(=O)c21 | -24 | 2.11
C=C=CCNS(=O)(=O)[C@@H]1CCc2ccccc2[C@H]1OC | -13 | 2.44
CCNc1cc(C)nc(NCCNC(=O)COc2ccc(-n3cccn3)nn2)n1 | -8 | 1.44
O=C(N1CCC(Cc2ccccc2)CC1)N1CCO[C@@]2(CCCOC2)C1 | -4 | 0.8
COC1CCN(C2CN(S(=O)(=O)c3ccc(F)c(F)c3)C2)CC1 | -10 | 1.85

Compound | % Inhibition [%] | Z score
CCOC(=O)[C@H](Cc1ccccc1)NC(=O)c1cccc[n+]1[O-] | -11 | 1.37
NS(=O)(=O)c1cnn(C2CCC2)c1 | -13 | 2.03
CC(Oc1ccccc1)C(=O)N1C2CCC1CC(n1ccnc1)C2 (configuration not stated) | -20 | 2.54
C[C@@H](Cn1cncn1)C(=O)NCCc1ccncc1 | -16 | 3.18
Cc1nnc(NC(=O)C(C)(C)S(=O)(=O)C2CC2)n1C1CC1 | 33 | -4.8
COc1cc(OC)cc(-c2nc(-c3cn(-c4ccc(C)cc4)nn3)no2)c1 | -14 | 2.73
N#Cc1ccc(NCCNc2cnccn2)nc1 | -4 | 0.67
CC(C)(Oc1ccc(C#N)cc1)C(=O)N1CCCc2ccccc2C1 | -15 | 1.29
C[C@@H](C(=O)N(C)CCc1ccccn1)n1ccnc1 | -3 | 0.41
O=C(Nc1ccc(OCc2cccnc2)cc1)NC1CCCC1 | 4 | -0.49
Fc1ccc2onc(C3CCN(Cc4cc5n(n4)CCNC5)CC3)c2c1 | 1 | -0.11
CCc1noc(-c2nc(-c3ccc(C)cc3)no2)n1 | -16 | 1.8
N#Cc1ccsc1N1CCC(NC2CCOC2C2CC2)C1=O (configuration not stated) | -3 | 0.36
CCNS(=O)(=O)c1cc(-c2c(C)noc2NC(C)=O)ccc1OC | -4 | 0.59
Cc1ccc(C(=O)N(C)Cc2nc3ccccc3c(=O)[nH]2)n1C | -1 | 0.13
COc1ccccc1CC(C)CC(=O)N1CCC(C(=O)O)C1 (configuration not stated) | -9 | 0.88
CN(CC1(O)CCC1)c1ncnc2sc(C(F)(F)F)nc12 | 13 | -1.75
Oc1nnc(Cc2ccccc2Cl)c2ccccc12 | -7 | 1
CCc1nc2n(n1)CCCC2NC(=O)C(CC)OC1CCCCC1 (configuration not stated) | 9 | -0.91
CC(C)c1nnc2n1[C@](C)(C(=O)NCCN1CCCCC1)COC2 | -11 | 1.28
C[C@H]1COC(C)(C)CN1C[C@@H]1CCC(=O)N1 | -9 | 0.95
CCn1ccnc1CN1CCN(Cc2ccncc2)[C@H]2CS(=O)(=O)C[C@H]21 | -3 | 0.46

Compound | % Inhibition [%] | Z score
CC(C)(C)NC(=O)CNC(=O)c1ccc(-c2ccc3ocnc3c2)cc1 | -13 | 1.88
CCC(N)(CC)c1cn(C2CCN(C(=O)N[C@@H](C)c3ccccc3)CC2)nn1 | 13 | -1.67
Cc1ccc(C(C)(C)NC(=O)c2ccnc(N3CC[C@H](C)C3)c2)cn1 | -21 | 2.7
Cc1cc(N2CCCCCC2)n2nc(-c3ccccc3)c(C)c2n1 | -13 | 2.51
CCC(=O)N1CCCCCCNC(=O)[C@@H]2C[C@@H](C(=O)NCCc3c[nH]c4ccccc34)C[C@@H]21 | -11 | 2.29
COc1ccc(Cl)cc1-c1cn(CC(=O)N2CCN(C(C)=O)CC2)nn1 | -14 | 1.77
CN(C)c1ccc(NC(=O)NC2C3CCOC3C23CCC3)nc1 (configuration not stated) | -16 | 1.57
CN(Cc1ccccc1)C1(CNCC2CC2)Cc2ccccc2C1 | -4 | 0.64
Cc1cccc(-n2cc(O)c(C(=O)N(CCO)C3CC3)n2)c1C | -12 | 1.7
O=C1CCC[C@@H](C(=O)Nc2cccc(-c3noc(C(F)F)n3)c2)N1 | -7 | 0.87
O=C(NCCc1ccccc1)C(=O)NCc1ccc(-c2ccoc2)cc1 | -16 | 1.82
COc1ccc(-c2cc(C(=O)N[C@@H](Cc3cc4ccccc4[nH]3)C(=O)O)c(C)o2)cc1OC | -12 | 1.43
Cc1nc(N2CCCC2)c2c(C)c(C(=O)N3CCCC3)sc2n1 | -12 | 1.08
COc1ccc(C(=O)N2c3ccccc3C[C@H]2c2nc(C(C)C)no2)cn1 | -10 | 1.28
CC(C)(C)OC(=O)NC1CCCC(NCc2ccc(C#N)o2)C1 (configuration not stated) | -20 | 2.72
c1ccc(NC2CCCC3OCCC23)nc1 (configuration not stated) | -11 | 1.24
Cc1cccc(NC(=O)C2CCN(c3cncnc3N3CCOCC3)CC2)c1C | -4 | 0.83
Cc1cc(NCCCc2ccc(O)cc2)nc(N)n1 | 5 | -0.92
CNC(=O)c1cnn(-c2cc(-c3nc(C(C)C)no3)ccn2)c1C | -12 | 1.97
CCOC(=O)N1CCC(NS(=O)(=O)c2ccc(N3C(=O)CCS3(=O)=O)cc2C)CC1 | 6 | -0.79
